Drawing on PubChem BioAssay AID1745853 (National Center for Advancing Translational Sciences (NCATS), 2022), this text covers activity change, negative = inhibition for 28 compounds.

Several values for one entry are separate records, joined by “and”; a condition that tells them apart may be missing. Identical values can stand only once. The list shows a part of the results. Shown are side measurements of this screen, not its main read-out; they come without a call.

Holding throughout (test): Primary Screen for Target Class Profiling of Small Molecule Inhibitors of Methyltransferases
The target in test [1] is Glycine N-methyltransferase (Homo sapiens) (UniProt Q14749). The settings on record: purified enzyme, MTase-Glo SAH luminescence; measured here: GNMT inhibition; at 40 µM; stronger effect = lower value. Put shortly:
(§1)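 Each enzyme was reacted with SAM and its substrate, with compounds tested once at 40 uM; SAH formed was read by MTase-Glo luminescence.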

Test [2] concerns the target Guanidinoacetate N-methyltransferase (Homo sapiens) (UniProt Q14353). The settings on record: purified enzyme, MTase-Glo SAH luminescence; measured here: GAMT inhibition; at 40 µM; stronger effect = lower value. The method in brief: as §1
The target of test [3] is Histamine N-methyltransferase (Homo sapiens) (UniProt P50135). The settings on record: purified enzyme, MTase-Glo SAH luminescence; measured here: HNMT inhibition; at 40 µM; stronger effect = lower value. Put shortly: as §1
Test [4] deals with Nicotinamide N-methyltransferase (Homo sapiens) (UniProt P40261). To be noted: purified enzyme, MTase-Glo SAH luminescence; measured here: NNMT inhibition; at 40 µM; stronger effect = lower value. The method in brief:
as §1

Test [5] concerns the target Phenylethanolamine N-methyltransferase (Homo sapiens) (UniProt P11086). To be noted: purified enzyme, MTase-Glo SAH luminescence; measured here: PNMT inhibition; at 40 µM; stronger effect = lower value. Put shortly: as §1
On the % scale 0 is the no-effect control and ±100 the full control effect.

For the compound `O=C(Nc1ccc2c(c1)OCCO2)N1CC(c2nc(CCOCC3CC3)no2)C1`, the activity change, negative = inhibition is -5.93% in test [1]; -8.19% in test [2]; -3.54% in test [3]; -8.46% in test [4]; -3.85% in test [5].

For the compound `CC(C(=O)O)c1ccc(CC2CCCC2=O)cc1` (stereo not drawn), the activity change, negative = inhibition in test [1] turned out to be 6.82%; in test [2], 14.1%; in test [3] it was 6.59%; in test [4], 0.459%; in test [5] it was 11.2%.

Take `CCc1cccc(NC(=O)Cn2nc3n(CC(C)C)c(=O)c4ccc(C(=O)NCC(C)C)cc4n3c2=O)c1`: the activity change, negative = inhibition was 8.17% in test [1]; 0.707% in test [2]; 10.1% in test [3]; 3.87% in test [4]; 5.71% in test [5].

As to `CC(CNC(=O)CCc1nnc2ccc(NCCCN3CCCC3=O)nn12)c1ccccc1` (stereo not drawn), the activity change, negative = inhibition in test [1] was found to be 0.84%; in test [2], 3.4%; in test [3], 7.85%; in test [4], 6.68%; in test [5], 8.74%.

Turning to `Cc1cc2c(cc3n2CC(C)(C(=O)NC2CCCCCC2)N(CCN2CCN(C)CC2)C3=O)o1` (stereo not drawn), the activity change, negative = inhibition is 0.024% in test [1]; 4.19% in test [2]; 1.27% in test [3]; -1.67% in test [4]; -2.63% in test [5].

For `C=CC1(C)C=C2C(=O)CC3C(C)(C)CCCC3(C(=O)O)C2(O)CC1` (stereo not drawn), the activity change, negative = inhibition in test [1] was 0%; in test [2] it was 6.59%; in test [3] it was 9.83%; in test [4], -6.08%; in test [5] it was 7.36%.

Regarding `CN1C(=O)c2cc(C(=O)NCCCN3CCCC3=O)nn2CC1(C)C(=O)NCc1ccc(F)cc1` (stereo not drawn), the activity change, negative = inhibition in test [1] is 0.921%; in test [2], 2.7%; in test [3], -2.41%; in test [4], 1.58%; in test [5] it was -1.56%.

Take `CCc1cc2c(cc3n2CC(C)(C(=O)NC2CCC(C)CC2)N(c2cccc(F)c2)C3=O)s1` (stereo not drawn): the activity change, negative = inhibition in test [1] was 1.82%; in test [2], 0.324%; in test [3], 2.91%; in test [4] it was 5.23%; in test [5], 1.22%.

As to `O=C(O)CCc1c(C(=O)O)[nH]c2cc(Cl)cc(Cl)c12`, the activity change, negative = inhibition in test [1] was -1.28%; in test [2], 4.59%; in test [3], 12.3%; in test [4], -4.46%; in test [5], 8.96%.

Regarding `CCNC(=O)N1C[C@H]2OC(=O)N(Cc3ccc(OC)c(OC)c3)[C@H]2C1`, the activity change, negative = inhibition is -0.636% in test [1]; 0.536% in test [2]; -0.538% in test [3]; 4.35% in test [4]; 3.23% in test [5].

On to `CCC1c2ccc(C)n2CCN1C(=O)Nc1ccc(C)cc1` (stereo not drawn), for which the activity change, negative = inhibition in test [1] was -0.577%; in test [2] it was 0%; in test [3] it was -1.76%; in test [4], -5.97%; in test [5], 0.15%.

On to `O=C(Cn1ccc2cc(S(=O)(=O)N3CCCCC3)ccc21)NCc1cccs1`, for which the activity change, negative = inhibition was 4.29% in test [1]; 4.03% in test [2]; -3.45% in test [3]; 0.806% in test [4]; -0.331% in test [5].

On to `CC[C@H]1OC(=O)[C@H](C)[C@@H](O[C@H]2C[C@@](C)(OC)[C@@H](O)[C@H](C)O2)[C@H](C)[C@@H](O[C@@H]2O[C@H](C)C[C@H](N(C)C)[C@H]2O)[C@](C)(O)C[C@@H](C)C(=O)[C@H](C)[C@@H](O)[C@]1(C)O`, for which the values for the activity change, negative = inhibition in test [2], in test [4] and in test [5] were -17.3%, -20.2% and -2.57%, respectively.

On to `CC(C)c1nc(-c2ccc(OC3CCNC3)cc2)no1` (stereo not drawn), for which the activity change, negative = inhibition was -3.84% in test [1]; -4.61% in test [2]; -27.9% in test [3]; -7.07% in test [4]; -9.87% in test [5].

`CC(C)CCN1CC(Oc2ccc(F)cc2F)C1`: the activity change, negative = inhibition in test [1] is -3.78%; in test [2], -2.33%; in test [3] it was 0.584%; in test [4] it was -7.76%; in test [5], -5.57%.

As to `CCc1nc(CN2CCOC(c3ccc4cc(OC)ccc4c3)C2)no1` (stereo not drawn), the activity change, negative = inhibition in test [1] was -6.73%; in test [2] it was -5.06%; in test [3], -3.59%; in test [4] it was -7.32%; in test [5], -9.57%.

With `Cc1cc(CNS(=O)(=O)c2ccc3c(c2)CCN(C(=O)C(O)C(C)C)C3)no1` (stereo not drawn), the activity change, negative = inhibition was -2.32% in test [1]; -5.5% in test [2]; -0.285% in test [3]; -1.41% in test [4]; -1.03% in test [5].

Consider `Cc1ccc(NC(=O)c2sc(=S)n3c2[nH]c(=O)c2cc(Cl)ccc23)c(C)c1`, for which the activity change, negative = inhibition was -10.6% in test [1]; 0% in test [2]; 8.53% in test [3]; -1.47% in test [4]; -4.24% in test [5].

Regarding `FC(F)(F)c1cc(C(F)(F)F)c2ccc3nc(-c4nnco4)cn3c2n1`, the activity change, negative = inhibition was -0.152% in test [1]; -7.28% in test [2]; 7.79% in test [3]; -17.8% in test [4]; -1.3% in test [5].

In the case of `CCc1nn(CCO)c(CC)c1Oc1cc(C#N)cc(C#N)c1`, the activity change, negative = inhibition was -2.67% in test [1]; -8.07% in test [2]; 6.32% in test [3]; -20.3% in test [4]; -1.99% in test [5].

As to `O=C(O)CCCc1c[nH]c2ccccc12`, the activity change, negative = inhibition in test [1] is -1.94%; in test [2] it was -6.37%; in test [3] it was 11.3%; in test [4] it was -10.4%; in test [5], 3.08%.

Consider `O=C(c1cc(Cc2n[nH]c(=O)c3ccccc23)ccc1F)N1CCN(C(=O)C2CC2)CC1`, for which the activity change, negative = inhibition in test [1] was -11.9% and -8.64%; in test [2], -3.94%; in test [3], 0.172% and 12%; in test [4], -20.5% and -3.38%; in test [5], -6.85% and 4.57%.

For the compound `Clc1ccc(-c2nnn3c2nc(NCc2ccccc2)c2ccccc23)cc1`, the activity change, negative = inhibition is -1.04% in test [1]; 1.37% in test [2]; 1.96% in test [3]; -1.34% in test [4]; -4.74% in test [5].

As to `CC(C)[C@@H](C)/C=C/[C@@H](C)[C@H]1CC[C@H]2C3=CC=C4C[C@@H](O)CC[C@]4(C)[C@H]3CC[C@]12C`, the activity change, negative = inhibition in test [1] was 0.284%; in test [2] it was 1.97%; in test [3] it was 8.58%; in test [4], -9.43%; in test [5] it was 3.81%.

On to `COCCOC(=O)C1=C(C)NC2=C(C(=O)CC(c3ccccc3OC)C2)C1c1cccc(O)c1` (stereo not drawn), for which the activity change, negative = inhibition in test [1] was -7.11%; in test [2], 2.13%; in test [3], -2.35%; in test [4], -19.6%; in test [5], -4.49%.

Consider `Cc1ccc(C2(O)CCN(c3nc(C)ccc3C(N)=O)CC2)nc1`, for which the activity change, negative = inhibition in test [1] was -3.19%; in test [2], 1.12%; in test [3] it was 0.62%; in test [4], -1.82%; in test [5], -15.9%.

With `CC1(C(=O)NCc2ccccc2Cl)Cn2cnc(C(=O)NCc3cccc(F)c3)c2C(=O)N1C1CC1` (stereo not drawn), the activity change, negative = inhibition is -0.175% in test [1]; 0.863% in test [2]; 5.49% in test [3]; 0.046% in test [4]; 4.71% in test [5].

Turning to `CC(=O)O[C@@H]1CC2C(/C=C(\C)C(=O)[C@@]3(O)C[C@@H](C)[C@H](OC(=O)c4ccccc4)C3/C=C/1C)C2(C)C` (stereo partly drawn), the activity change, negative = inhibition in test [1] is -1.02%; in test [2] it was -1.94%; in test [3], 4.93%; in test [4] it was -14.6%; in test [5] it was -5.31%.
